Experimental data as given in PMC4336329 (PLoS ONE, 2015).
The whole screen tested about 310,000 compounds, of which about 14,000 (4.5%) showed an effect of 50% or more. The effect is printed as a negative number. Some of the results follow.

The compounds below were run against human ether-à-go-go-related gene (hERG) potassium channel (human, UniProt Q12809) (assay: primary screen, population patch clamp on CHO cells stably expressing hERG).
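Also: peak tail current of the secondary pulse compared with the same well before compound.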

Sequence of human ether-à-go-go-related gene (hERG) potassium channel (Q12809 whole entry, looked up): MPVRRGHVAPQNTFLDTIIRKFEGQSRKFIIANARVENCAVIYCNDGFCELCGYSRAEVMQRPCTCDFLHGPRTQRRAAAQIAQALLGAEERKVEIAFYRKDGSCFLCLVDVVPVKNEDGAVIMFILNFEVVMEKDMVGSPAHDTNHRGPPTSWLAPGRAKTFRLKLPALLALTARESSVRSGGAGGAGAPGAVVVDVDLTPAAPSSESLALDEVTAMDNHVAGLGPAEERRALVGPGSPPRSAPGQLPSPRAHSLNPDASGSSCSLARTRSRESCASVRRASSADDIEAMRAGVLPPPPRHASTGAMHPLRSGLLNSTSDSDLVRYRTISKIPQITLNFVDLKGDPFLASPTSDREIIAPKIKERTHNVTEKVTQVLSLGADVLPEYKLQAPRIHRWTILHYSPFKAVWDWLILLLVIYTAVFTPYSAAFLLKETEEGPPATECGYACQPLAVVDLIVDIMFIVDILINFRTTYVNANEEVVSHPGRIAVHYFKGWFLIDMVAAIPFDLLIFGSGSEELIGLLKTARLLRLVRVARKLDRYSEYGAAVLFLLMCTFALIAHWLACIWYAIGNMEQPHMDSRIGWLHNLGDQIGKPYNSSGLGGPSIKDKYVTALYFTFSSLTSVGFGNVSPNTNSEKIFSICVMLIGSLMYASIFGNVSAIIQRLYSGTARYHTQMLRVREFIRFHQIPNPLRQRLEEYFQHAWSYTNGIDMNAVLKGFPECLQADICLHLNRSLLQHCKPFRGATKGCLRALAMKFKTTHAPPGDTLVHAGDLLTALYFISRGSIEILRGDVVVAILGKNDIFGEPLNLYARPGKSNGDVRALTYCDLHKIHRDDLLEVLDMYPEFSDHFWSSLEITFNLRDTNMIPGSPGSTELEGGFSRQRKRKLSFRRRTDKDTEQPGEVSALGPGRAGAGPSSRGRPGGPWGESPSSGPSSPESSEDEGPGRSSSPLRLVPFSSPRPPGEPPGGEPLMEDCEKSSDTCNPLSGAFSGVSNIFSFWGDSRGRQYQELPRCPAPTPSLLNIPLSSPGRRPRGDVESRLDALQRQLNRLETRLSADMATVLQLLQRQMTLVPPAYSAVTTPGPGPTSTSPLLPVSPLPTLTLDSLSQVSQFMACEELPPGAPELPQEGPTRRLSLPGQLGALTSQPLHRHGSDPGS

SMILES | hERG current change (%, negative = inhibition) at 10uM
Cn1nccc1C(=O)N/N=C/c1cccnc1 | -14.8%
O=c1oc2ccc(Cl)cc2cc1-c1nnc(Nc2cccc(C(F)(F)F)c2)s1 | 18.3%
Cc1ccc(-c2nnc(Oc3cccc(C)c3)c3ccccc23)cc1 | 0.359%
COCCNC(=O)/C(C#N)=C/c1c(N2CCCCCC2)nc2c(C)cccn2c1=O | 4.39%
CCN(CCN(C)C)C(=O)Cn1ncc2c1-c1cc(C)ccc1OC2 | -15.7%
CCc1nc(SCC(=O)NCc2ccco2)c2c(=O)n(C)c(=O)n(C)c2n1 | -0.832%
Cc1ccc(S(=O)(=O)Nc2ccc(C(=O)N3CCCC3)cc2)cc1 | -0.474%
Cc1cc(C)c(C2=CC(=O)C[C@H](c3ccc4c(c3)OCO4)C2)c(C)c1 | 18.2%
CCOc1ccc(C(=O)Nc2ccc(Cl)cn2)cc1Cl | 2.73%
CCCCN1C[C@H](O)[C@@H](O)[C@H](O)[C@H]1CO.Cl | 9.61%
COc1ccc(C(C(=O)NC2CCCCC2)N(C(=O)CCl)c2ccccc2Cl)cc1 (stereo not drawn) | 0.594%
CCNc1nc(NCC)nc(C(=O)NN)n1 | -1.56%
COc1ccc(Br)cc1CNC(=O)C1CCC(=O)N1C(C)C (stereo not drawn) | -10.1%
O=C(NNC(=O)c1cc(Br)ccc1O)c1csc(N2CCOCC2)n1 | -3.37%
Cc1cc(C(=O)OCC(=O)NCc2ccc(Cl)cc2)c(C)o1 | -16.1%
CCn1c(SCC(=O)Nc2ccc(NC(=O)c3cccs3)cc2)nnc1-c1cccnc1 | 4.35%
CCOC(=O)c1sc2nc(CC(=O)OC)nc(NCCN(CC)CC)c2c1C | -62.7%
CCOC(=O)c1ccc(NC(=O)c2nc[nH]c2C(=O)N(CC)CC)cc1 | -5.56%
O=C1N=C(N2CCOCC2)SC1=C1CCCCC1 | -1.33%
CC1CN(C(=O)c2cc(COc3c(F)cccc3F)on2)CCN1C (stereo not drawn) | 9.07%
CN(Cc1ccno1)Cc1cn(Cc2ccccc2)nc1-c1ccc2c(c1)OCO2 | -35.4%
CCn1c(SCC(=O)N2CCCCC2)nc(O)cc1=O | -7.46%
CC(C)(C)n1nc2c(c1NC(=O)COc1ccc(Cl)cc1)CS(=O)(=O)C2 | -46.5%

SMILES | hERG current change (%, negative = inhibition) at 10uM
C=CCN(CC=C)Cc1c(C)[nH]c2ccc(C(=O)OCC)cc2c1=O | -20%
CC1(C)CC(=O)c2sc(NC(=O)c3ccco3)nc2C1 | 7.16%
CCCc1cc(C(=O)Cc2nc3ccccc3s2)c(O)cc1O | -24%
CCOc1ccc(N2C(=O)NC(=O)/C(=C\c3ccc(N4CCOCC4)cc3C)C2=O)cc1 | 4.46%
CC[n+]1c(/C=C2\C=C(C)CC(C)(C)C2)sc2ccccc21.[I-] | -39.7%
CCOC(=O)c1c(NC(=O)C(C)N2CCN(S(=O)(=O)c3cccs3)CC2)sc2c1CCC(C)C2 (stereo not drawn) | 6.72%
CC(=O)Nc1ccc(NC(=S)NC(=O)c2oc3ccccc3c2C)cc1 | 10.7%
COc1cccc(NC(=O)CNC(=O)Cn2cnc3sc(C)c(C)c3c2=O)c1 | 1.97%
CC(C)NC(=O)CCn1nc(-c2ccc(Cl)cc2)c2ccccc2c1=O | 1.72%
CN1CCN(C(=O)c2ccc3c(=O)n(Cc4ccc(Cl)cc4)c(=S)[nH]c3c2)CC1 | -7.38%
CCN(C(=O)c1cc([N+](=O)[O-])ccc1NCc1cccnc1)c1ccccc1 | -19.8%
Nc1ccc(C(O)(C(F)(F)F)C(F)(F)F)cc1 | 1.55%
CC(=O)Nc1ccc(S(=O)(=O)NCCC(=O)OCc2ccc([N+](=O)[O-])cc2)cc1 | -57.4%
CC12CC3CC(C)(C1)CC(N)(C3)C2.Cl | 32.7%
Cc1cc(C)n(CC(O)CN(c2ccccc2)S(=O)(=O)c2ccccc2)n1 (stereo not drawn) | 7.17%
Cc1csc(NC(=O)CSc2nnc(-c3ccc(S(=O)(=O)N4CCCC4)cc3)o2)n1 | -9.6%
CC1CCN(C(=O)CN2C(=O)c3ccccc3S2(=O)=O)CC1 | 7.06%
O=C(Nc1ncccc1O)c1cccc(S(=O)(=O)NCc2ccccc2)c1 | -20.3%
COC(=O)CC(c1ccc(F)cc1)n1c(C)ccc1C (stereo not drawn) | 8.06%
CCN1CCN(S(=O)(=O)c2ccc(OC)c(NC(=O)c3ccccc3F)c2)CC1 | -30.8%
O=C1CCN(Cc2ccc(O)cc2)CCN1CCO | -46.9%
COc1cc(C)nc(N2CCCC(C(=O)Nc3cccc(Cl)c3Cl)C2)n1 (stereo not drawn) | 9.03%
CCOc1ccccc1NC(=O)CCS(=O)(=O)c1ccc2c(c1)CC(C)N2C(C)=O (stereo not drawn) | 8.27%

SMILES | hERG current change (%, negative = inhibition) at 10uM
O=C(c1cccc(F)c1)N1CCC2(CC1)NCCc1[nH]cnc12 | 6.92%
COc1ccc(S(=O)(=O)NCc2ccccc2)cc1Br | 6.25%
Oc1ccc(Nc2nc3ccccc3nc2Nc2ccc(O)cc2)cc1 | 19.4%
COc1cn(-c2ccccc2)nc1C(=O)NCc1ccc(C)cc1 | 12.6%
COc1ccccc1C(=O)NCCCNC(=O)c1ccccn1 | 13.5%
COC(=O)c1ccc(NC(=O)[C@H](C)NC(N)=O)cc1 | 11.6%
Cc1ccccc1NC(=O)c1c(C)nc(SCC(=O)OCc2ccccc2)c(C#N)c1-c1ccc(F)cc1 | 6.29%
CCCCn1c(O)c(C(CC)=NCCCn2ccnc2)c(=O)[nH]c1=O | -43.3%
CCOC(=O)c1sc(NC(=S)NC(=O)c2cccc(OC)c2)nc1C | 15.4%
CN(C)S(=O)(=O)Nc1ccccc1C(N)=O | 6.91%
O=C(NCCOC(=O)C1COc2ccccc2O1)C1COc2ccccc2O1 (stereo not drawn) | -29%
COc1ccc(C(=O)Nc2ccc(OC)c([N+](=O)[O-])c2)cc1Br | 25.5%
CCOC(=O)c1sc(NC(=O)Nc2ccccc2F)nc1C | 1.24%
Cc1ccc(S(=O)(=O)c2nc(S(C)(=O)=O)sc2NCC2CCCO2)cc1 (stereo not drawn) | -13.6%
O=C(CSc1nnc(NC(=O)c2c(F)cccc2F)s1)NCc1ccc(F)cc1 | 0.789%
CC(C)N(Cc1cn(C)nc1-c1cccc(Cl)c1)CC1CCC(=O)N1 (stereo not drawn) | -8.72%
CC(C)N(CCC(=O)c1ccc2ccccc2c1)Cc1ccccc1.Cl | 9.07%
Cn1cc(S(=O)(=O)N2CCOCC2)cc1C(=O)NCc1ccccc1Cl | -16.9%
COc1ccc(CNCCCC(=O)Nc2c(Cl)ccc(C)c2Cl)cc1OC | -8.83%
Nc1nc(-c2ccc(Cl)cc2)nc(-c2ccc(Cl)cc2)n1 | 3.12%
CC1CC(C)CN(C(=O)Cn2nnc(-c3ccc(Br)cc3)n2)C1 (stereo not drawn) | 2.22%
O=C(CCN1C(=O)/C(=C/c2ccc(F)cc2)SC1=S)N[C@@H](CO)Cc1ccccc1 | 15.7%
CSc1nc(N2CCOCC2)c2c3c(sc2n1)CCCC3 | -2.32%

SMILES | hERG current change (%, negative = inhibition) at 10uM
Cc1cc(=O)[nH]c(SCn2nnc3ccccc3c2=O)n1 | 1.39%
NNC(=O)CCc1c[nH]c2ccccc12 | 27.3%
CN(CCOc1ccccc1)Cc1nc2cc(Cl)ccc2c(=O)[nH]1 | -48.9%
CC(OC(=O)c1cccc(S(=O)(=O)N2CCOCC2)c1)C(=O)NC1CCCCC1C (stereo not drawn) | 5.52%
COc1cc(C(=O)NCCc2cn3ccccc3n2)cc(OC)c1OC | -4.35%
COc1ccc(-n2c(-c3ccc(Br)cc3)c[n+]3c2CCc2ccccc2-3)cc1.[Br-] | -85.2%
CNC(=O)COC(=O)CCC(=O)c1ccc(Cl)cc1 | 7.45%
Cn1c2ccccc2n2c(=O)c(Cl)c(-c3ccccc3)c(C#N)c12 | 3.23%
N#CCCN1CCn2c1nc1ccccc12 | 16.8%
COC(=O)c1ccccc1C(=O)N(Cc1cccnc1)CC1CCCN(C2CCCCC2)C1 (stereo not drawn) | -40%
CCOc1ccccc1C1CC(=O)Nc2cc(OC)c(OC)c(OC)c21 (stereo not drawn) | 19.6%
CCOc1c(C)cnc2c1c(=O)n(Cc1ccccc1F)c(=O)n2C | -20%
CC(C(=O)Nc1ccc(F)c(F)c1F)N1CCCCCC1 (stereo not drawn) | 6.01%
COc1cccc(NC(=O)c2cc3ccccc3oc2=O)c1 | 17.7%
Cc1ccccc1OCC(=O)Nc1nnc(C2CCCCC2)s1 | 10.7%
CC(C)(C)OC(=O)N/N=C/c1ccc(C(=O)O)cc1 | 19.7%
CCC(C)N1CC(C(=O)NC2CCCCC2)CC1=O (stereo not drawn) | 13.9%
OCCOCCn1c(-c2ccccc2)nc(=S)c2c1CCCC2 | 9.34%
NS(=O)(=O)c1ccc(CCNC(=O)c2ccc(NC3=NC4CS(=O)(=O)CC4S3)cc2)cc1 (stereo not drawn) | 22.2%
N#Cc1cc(NC2CCCC2)c([N+](=O)[O-])cc1C#N | -5.68%
Cc1cc(-c2c(C)n([O-])c(C)c(C)[n+]2=O)ccc1F | 5.26%
